Data: the supplement of paper PMC3334620
In all, about 33,000 sequences were measured (“E-score (-0.5 to 0.5)”: median about -0.035, highest 2% from about 0.34 on). The list shows a part of the results.

biological target: T1, Mot3 (UniProt P54785); assay: PBM E-score (8-mer binding enrichment) (E-score (-0.5 to 0.5)); higher = stronger / more preferred TF binding; most listed sequences are background and not binding sites; settings: protein concentration: 200 nM; construct: GST-full length
T1 sequence: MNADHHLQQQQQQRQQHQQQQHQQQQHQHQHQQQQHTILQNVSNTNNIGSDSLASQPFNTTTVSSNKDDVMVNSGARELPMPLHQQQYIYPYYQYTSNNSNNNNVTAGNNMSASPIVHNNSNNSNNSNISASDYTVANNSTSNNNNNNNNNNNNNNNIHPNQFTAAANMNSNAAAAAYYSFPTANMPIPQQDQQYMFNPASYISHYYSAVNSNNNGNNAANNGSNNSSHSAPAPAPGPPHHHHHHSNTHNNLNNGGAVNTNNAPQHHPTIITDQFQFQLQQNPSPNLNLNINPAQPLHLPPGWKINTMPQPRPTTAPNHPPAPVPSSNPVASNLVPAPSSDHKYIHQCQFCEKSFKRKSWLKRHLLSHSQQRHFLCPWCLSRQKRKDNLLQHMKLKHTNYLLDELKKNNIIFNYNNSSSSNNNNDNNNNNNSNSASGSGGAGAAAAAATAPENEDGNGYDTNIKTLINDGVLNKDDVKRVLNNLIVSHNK
Method in brief: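 Universal all-10-mer Agilent arrays, fresh or stripped once, were converted to double-stranded form by primer extension. GST-tagged yeast transcription factors from PURExpress in vitro transcription/translation, full-length or DNA-binding domain only, were applied at about 100-200 nM and detected with fluorescent anti-GST. After masliner normalisation, the Universal PBM Analysis Suite scored each ungapped eight-base word together with its reverse complement by E-score.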

Row | Sequence | PBM E-score
1 | TCAGGGAA | -0.128
2 | TCTTGCCA | -0.107
3 | AAATGCAG | -0.0543
4 | GCGCCATA | -0.291
5 | AGTTTGCA | -0.0759
6 | CCGATCCC | -0.343
7 | CACAGATC | 0.0715
8 | AATGGGTC | -0.358
9 | CGTCGTAA | 0.0759
10 | ACCATAAT | -0.0317
11 | CATTCACA | 0.0613
12 | ACTTGCTC | -0.12
13 | CCCAGGCG | -0.061
14 | CTCTTCTC | -0.15
15 | CATGTTTA | 0.371
16 | GTCAGTTA | -0.165
17 | CCGGCAAA | -0.0759
18 | GTAATAAA | 0.28
19 | AGCACAAT | -0.00086
20 | ACACCATC | 0.122
21 | ACCTGTTC | 0.152
22 | AAAGACAA | 0.16
23 | CATGTGGG | -0.0314
24 | AACGGTTC | -0.172
25 | CACAGTGA | 0.0683

Row | Sequence | PBM E-score
26 | ATCTACTG | -0.0684
27 | GCACGTTA | 0.225
28 | ACCGACGT | -0.0732
29 | TAACGGAA | -0.0117
30 | CACTTGGG | -0.201
31 | ACCCGGGT | -0.259
32 | AGCGCTTC | -0.0956
33 | CAAAATGG | -0.0164
34 | CCCGAACG | -0.257
35 | AGTATCAG | -0.111
36 | ATGGCAAG | -0.174
37 | CTCGAGGA | -0.107
38 | ACGGGACC | -0.117
39 | AAGAGCAT | 0.133
40 | ACATGGTG | 0.319
41 | CTTTGAGA | 0.0107
42 | ATTCCGCA | -0.169
43 | AACCCATG | 0.185
44 | AAATGTTC | 0.0938
45 | CTAAAAGC | -0.334
46 | CAACATTC | 0.0308
47 | TGCCACAA | 0.0602
48 | CGTTACGC | 0.118
49 | CCCCCTTC | -0.372
50 | ACAACGGA | 0.0699

Row | Sequence | PBM E-score
51 | ATCACATG | 0.195
52 | GCCAATAC | 0.13
53 | ATAAGTGA | -0.0522
54 | AGCGTAGA | -0.0536
55 | AGCTGCCC | -0.161
56 | AATCAGGA | 0.0803
57 | GACCCGCC | -0.0825
58 | CTACATAG | 0.316
59 | CTGATCCC | -0.0724
60 | GCTTGCGA | -0.0364
61 | ATTCATTG | 0.143
62 | ACCACGAC | -0.194
63 | AAGCTCAC | -0.0799
64 | AGATGGCT | -0.146
65 | CCCCTCGG | -0.121
66 | ATGAGCGC | -0.103
67 | AAAGATTA | 0.0709
68 | CGCTCTTC | -0.174
69 | AAACTAGT | 0.0999
70 | GATTCCGA | -0.315
71 | GGACAGAA | -0.199
72 | CAGACTCA | -0.127
73 | GTACACCA | 0.134
74 | ACTCGCCG | -0.0977
75 | CATCCCGC | -0.167

Row | Sequence | PBM E-score
76 | CGTCGCGC | -0.378
77 | GGACGATA | -0.153
78 | AGCCGCGA | -0.27
79 | ATACGAGG | -0.147
80 | GATGCAAC | -0.199
81 | CTTGCTGC | -0.174
82 | CGTTCAAC | 0.0786
83 | AGGAAAGG | 0.371
84 | ACACGAAG | 0.298
85 | TTAAGGAA | 0.398
86 | ACCGTGAG | -0.254
87 | CTAGATCA | -0.132
88 | CATGGCTA | -0.0348
89 | GCTTATTA | 0.108
90 | ACGTTATG | 0.161
91 | CCTAACAG | 0.0654
92 | TCGCCTAA | 0.0287
93 | CGCAGTAC | -0.235
94 | GACGGGCA | -0.0809
95 | AGCTCATC | -0.188
96 | AACTCGAA | 0.0821
97 | TCTCACAA | -0.0862
98 | ACCTCTTA | -0.00725
99 | AAAGGCTC | 0.354
100 | CGTCGATA | 0.0759

Row | Sequence | PBM E-score
101 | ATCAAAAC | -0.118
102 | GACTATCA | -0.0607
103 | CAGTTGGA | -0.257
104 | CTGATTCA | -0.0589
105 | GATGTAGC | -0.18
106 | GGAAGTCC | -0.206
107 | ATCAGACC | -0.0722
108 | AATATGCA | -0.152
109 | ATCGCAAC | -0.0906
110 | AATGAGCT | -0.0919
111 | GACAGCAA | -0.173
112 | ACTGGTCG | -0.144
113 | ACTCAAGC | -0.104
114 | GATCGCAC | 0.114
115 | CTGGACCC | -0.297
116 | ACGATCTA | 0.0861
117 | CGGTAAAG | 0.0179
118 | GAAGAGTC | -0.0062
119 | CCCTGATA | -0.177
120 | AGGGCGAG | -0.161
121 | AGTAATCC | 0.104
122 | ACGAGGGC | -0.126
123 | GCCTCATA | -0.101
124 | ACGGATGG | -0.0994
125 | ATGTTAAA | 0.392

Row | Sequence | PBM E-score
126 | CATTGCCC | -0.182
127 | AATCGAGT | -0.051
128 | CATACATA | 0.329
129 | ATACACGA | 0.352
130 | AGACAGGC | 0.23
131 | AAGGTCCT | -0.099
132 | AGTGTTCG | -0.03
133 | CGATACCC | -0.139
134 | AATAACGA | 0.0862
135 | ATCCGCGG | -0.195
136 | CTACCACC | -0.155
137 | GTGACCCA | -0.0984
138 | CGTGCACG | -0.0903
139 | AATTGAAT | 0.125
140 | CCACCACC | -0.172
141 | GATGTTTA | 0.125
142 | ATAATAGA | -0.0252
143 | CGACCACC | -0.275
144 | CACAGACC | 0.0761
145 | CTCCGTTC | -0.0461
146 | AATCTAGC | -0.198
147 | GCATCAGC | -0.0634
148 | TCCCAAAA | 0.0948
149 | TAGCATCA | 0.0801
150 | AATCTGAA | 0.0593

Row | Sequence | PBM E-score
151 | CGTCTCGC | -0.217
152 | AGCAACTC | 0.00666
153 | ACGGCCAA | 0.0182
154 | CAAGCAGG | -0.0175
155 | TAAAATTA | 0.12
156 | AGAACCCG | -0.123
157 | ATTTATCC | 0.00874
158 | TCATAACA | 0.255
159 | ATCTCTAA | -0.217
160 | CCTTACGA | 0.121
161 | GAAATTAA | 0.189
162 | CACTCTCA | -0.156
163 | ACAGATCA | 0.00293
164 | GGCGTGGA | -0.277
165 | CACATAGA | 0.0163
166 | CGTGTGAG | 0.102
167 | AAAACTCA | 0.0802
168 | ACGGCACT | -0.139
169 | GAATGATA | 0.0188
170 | CATCGACC | -0.00064
171 | AGATGTGA | 0.0833
172 | AAGCAATT | 0.193
173 | TATGAAGA | -0.157
174 | GCATTTTA | 0.00137
175 | AGGAATCC | -0.0979

Row | Sequence | PBM E-score
176 | CCAGTTCG | -0.111
177 | CTTACGCC | 0.106
178 | ATCGGGTA | -0.0551
179 | TACATCGA | 0.0651
180 | ACGCTGAC | 0.0943
181 | CAGGCCCA | -0.0213
182 | GTACCAAC | 0.13
183 | ATCGAAAC | -0.134
184 | GCCTAAAA | 0.309
185 | CCTGCGCA | -0.0571
186 | ACAGCTAT | -0.0191
187 | CCGTCCTA | -0.135
188 | CAGTGACG | -0.0721
189 | GCTGTTAA | 0.211
190 | ACGCGTTG | 0.3
191 | CTGCTACC | -0.00184
192 | AGTGAACG | -0.121
193 | CCATAGTA | -0.0932
194 | CAATTACC | 0.12
195 | GCTTAGTA | -0.00203
196 | ATTCTCGA | -0.00831
197 | ATCGTGAC | -0.00992
198 | GCCAACCC | -0.131
199 | GAGGTTAA | 0.127
200 | AGCGATTC | -0.0991

Row | Sequence | PBM E-score
201 | ATTTTATC | -0.0884
202 | AGAGGCCC | -0.323
203 | ACGCTACC | -0.227
204 | AAATACGA | 0.122
205 | ACTCCTTG | -0.0271
206 | GCCATCGA | -0.0439
207 | CAGGAGGC | -0.0461
208 | GGGGTCCA | -0.182
209 | ACGAGGCA | 0.205
210 | CAAGGTAG | 0.0907
211 | CGGTCGTA | -0.27
212 | GCAAAAGC | 0.194
213 | CGGCAAAA | -0.112
214 | CACGAGGC | 0.0149
215 | CTTTCGCA | 0.00446
216 | CTTCGGTC | -0.0958
217 | ATCTAAAT | 0.0145
218 | CGCCGGAG | -0.221
219 | AACTAAAC | 0.13
